The other results are listed elsewhere or left out.

The chains are these.
B1: chr2:189754195:189754303:-|CDS|ENSG00000128694|unk|total|mutant (ssRNA)
RNA: GGGAGUUCUACAGUCCGACGAUCCCAGAGUGCUCCACCAUGAGUGGUGGGAAAGCCACCGAACAUUUGGCCAAACAAGGAAACCGAUUUCAUUUUGACAUCAAACCUCCCUUGCAUCAUGCUAAAAAUUGUGAUUUUUCUUUUCAACAGAGGAUUGAGCAUCA
B2: ENSG00000196277:stop:overlap|stop_codon|ENSG00000196277|stop_codon|NA|stop_codon (ssRNA)
RNA: GGGAGUUCUACAGUCCGACGAUCCACCAGUAAGAAAGAGUGUACAAAAGUCUGUUACUUGGUACACUAUCCCACCAACAGUAUAGCUUUUGACUGCUUUCCCAAAGAUUUUUUUUUUUGGCUGUACAGUGGAACUUGGAUUACCAACAGAGGAUUGAGCAUCA
B3: chr1:20652278:20652361:-|3pUTR|ENSG00000244038|msi1_unk|FALSE|overlapping (ssRNA)
RNA: GGGAGUUCUACAGUCCGACGAUCGACUGAGGGGCUAGAGCCCUCUCCGCACAGCGUGGAGACGGGGCAAGGAGGGGGGUUAUUAGGAUUGGUGGUUUUGUUUUGCUUUGUUUAAAGCCGUGGGAAAAUGGCACAACUUUACCUCAACAGAGGAUUGAGCAUCA
B4: chr8:116846039:116846140:-|3pUTR|ENSG00000164754|msi1|FALSE|bound_elsewhere (ssRNA)
RNA: GGGAGUUCUACAGUCCGACGAUCACAUUCAAUAUGAUGUGCCUGUAAACCAAGGAGUUUUCCCCGUUUGUAAAAAGACAUUGUAGAUAAUUGAAUGUUUGAUUUUAGAAAGGUCAUUAGUUUCUUGUUACACAUUUUGUUAGUCAACAGAGGAUUGAGCAUCA
B5: chr8:12728900:12729063:-|CDS|ENSG00000154359|control|control|control (ssRNA)
RNA: GGGAGUUCUACAGUCCGACGAUCAACGUGCAUUUCUUACCGGACGGAAGGUCUGUGGUUGAUACAGUUGGAGGAAAGCGGUUUAGGGUUUUAAAAAGAGGAAUGAAAGAUGGAUAUUGCACUGCCGACAUUGAAUAUCUGGAACAACAGAGGAUUGAGCAUCA
B6: chr2:46903789:46903890:-|3pUTR|ENSG00000180398|msi1|total|mutant (ssRNA)
RNA: GGGAGUUCUACAGUCCGACGAUCAAAUUUCUGCAGCUGGCUUGAAUUUCUCCCCAGAAAAUGGGUUUUUCUUUUCUAUUGCACCGUCAGGCUGCAAAUUUCCAAACUUUUAUGCUUUGCUUCCCUUAUUUAUAAGGGAAUGCCCAACAGAGGAUUGAGCAUCA
B7: chr5:40767470:40767586:-|CDS|ENSG00000132356|unk|total|mutant (ssRNA)
RNA: GGGAGUUCUACAGUCCGACGAUCUUUAAGAAGAUAUGUGAUGGGAUCUUCUAUACCCCUCAAUAUUUAAAUCCUUCUGUGAUCCGCCUUUUGAAACAUAUGCUGCAGGUGGAUCCCAUGAAGAGGGCCACAAUCAAAGAUAUCCAACAGAGGAUUGAGCAUCA
B8: chr9:14618660:14618761:-|3pUTR|ENSG00000175893|msi1|total|mutant (ssRNA)
RNA: GGGAGUUCUACAGUCCGACGAUCUCCGCUUUCCACAGGGAUUUCUUGAAAUGCUUUUGUUAUUAAACUCAAAAGGCAGUGAUCCGGAUGAAAUAAUUGUACAUAAUUUAUUUCCGUACUGACAGUGUUACAGAUUCUAAUUUACAACAGAGGAUUGAGCAUCA
B9: chr2:157736639:157736676:-|3pUTR|ENSG00000115170|msi1_unk|total|mutant (ssRNA)
RNA: GGGAGUUCUACAGUCCGACGAUCCUUCACAUUUGUAUGUGUGCCGACUGUAACUUUUUUUCAGUUCAUAUGCAGAACGUAUUCCGCCAUUACCCACGUGACACCACCGAAUAUAUUACUGAUUCCGAAGCAAAGAUUUCAGUACAACAGAGGAUUGAGCAUCA
B10: ENSG00000070961:be:win_3251|CDS|ENSG00000070961|bound_else_gene|NA|bound_elsewhere_windowed (ssRNA)
RNA: GGGAGUUCUACAGUCCGACGAUCAGGAAUUAGCAGAGGAUGUUGAAGAGAUUGAUCACGCUGAAAGGGAGUUGCGGCGUGGCCAAAUCUUGUGGUUUAGAGGUCUGAACAGAAUCCAAACACAGAUUCGAGUGGUGAAUGCAUCAACAGAGGAUUGAGCAUCA
B11: chr1:35190724:35191005:-|CDS|ENSG00000116560|unk|FALSE|unique (ssRNA)
RNA: GGGAGUUCUACAGUCCGACGAUCGCCCUUUCUGUUCGUAAUCUUUCACCUUAUGUUUCCAAUGAACUGUUGGAAGAAGCCUUUAGCCAAUUUGGUCCUAUUGAAAGGGCUGUUGUAAUAGUGGAUGAUCGUGGAAGAUCUACACAACAGAGGAUUGAGCAUCA
B12: chr14:50159683:50159784:-|CDS|ENSG00000100485|unk|FALSE|unique (ssRNA)
RNA: GGGAGUUCUACAGUCCGACGAUCGAGGAAAAUACAAAUUUGUGAUAAAGAAGAUACUUGUGAGCACAAGCAUGCAUUUGAAUUAGUAUCCAAAGAUGAGAACAGCAUAAUAUUUGCUGCUAAGUCUGCUGAAGAAAAAAACAACAACAGAGGAUUGAGCAUCA
B13: chr4:87473334:87473774:-|three_prime_utr|ENSG00000152583|control|control|control (ssRNA)
RNA: GGGAGUUCUACAGUCCGACGAUCCUUUCCAGCAUCCUCCUCUGUUCUAACCACUUCAGAAAUAUAUGCAGCUGUGAUACUUGUAGAUUUAUAUUUAGCAAAAUGUUAGCAUGUAUGACAAGACAAUGAGAGUAAUUGCUUGACCAACAGAGGAUUGAGCAUCA
B14: chr21:34512026:34512195:-|three_prime_utr|ENSG00000288711|control|control|control (ssRNA)
RNA: GGGAGUUCUACAGUCCGACGAUCACACUACCGGAUCCUCCGAGGGUGAUGGUUCUCAAGAAGGCAGAAGCAAUGGUGACCAAUAGACCUCCUUAAAGGCUGAGCCGCUGGGCACCUUCCUACUCCUCUCGACCGUGCUAGGAUCAACAGAGGAUUGAGCAUCA
B15: ENSG00000066084:stop:overlap|stop_codon|ENSG00000066084|stop_codon|NA|stop_codon (ssRNA)
RNA: GGGAGUUCUACAGUCCGACGAUCACUGGCAGCCACACAUCUCACCUGCUGGGACAGAACCGGCAUACAUUGAGGGGAAACAAUAGUAAAUGUCUUAGACUUUAAGAAGGAUGCUGGGCUGUGGCACGGCAUGUUUGCGAAUGUCAACAGAGGAUUGAGCAUCA
B16: chr8:27733518:27733645:-|3pUTR|ENSG00000147419|unk|total|mutant (ssRNA)
RNA: GGGAGUUCUACAGUCCGACGAUCGACCUUUUGAUUUUGAAGCAGACUAAAAUCUGACCAGACCACAAUGAAAAGUAUAAAAUCCGAAACUUAAAUUCCAAGCUAAAUUUCAGCUUUGACCCACCUAACUCCAGUGAACCGGUGCAACAGAGGAUUGAGCAUCA
B17: chr17:66805439:66805473:+|3pUTR|ENSG00000154229|msi1_unk|FALSE|overlapping (ssRNA)
RNA: GGGAGUUCUACAGUCCGACGAUCCACAAUUGUGCUCUAUUUGUGCAGGUUCUUGUUUCUAAUCCUCUUUUCUAAUUAAGUUUUAGCUGAAUCCCUUGCUUCUGUGCUUUCCCUCCCUGCACAUGGGCACUGUAUCAGAUAGAUCAACAGAGGAUUGAGCAUCA
B18: chr7:97024268:97024623:-|CDS|ENSG00000105880|control|control|control (ssRNA)
RNA: GGGAGUUCUACAGUCCGACGAUCGGCGUGAACGGCUCCGCCGGGAGCUACCCAGCCAAAGCUUAUGCCGACUAUAGCUACGCUAGCUCCUACCACCAGUACGGCGGCGCCUACAACCGCGUCCCAAGCGCCACCAACCAGCCACAACAGAGGAUUGAGCAUCA
B19: chr1:96820056:96820157:+|3pUTR|ENSG00000117569|unk|total|mutant (ssRNA)
RNA: GGGAGUUCUACAGUCCGACGAUCCCGUGUAAUAUAUAUAUAACCGCUCUAAUUAUAAAUACACUUUUACUCUGGAAAAAGCACCGACAUUGACAUAAGAGACAUUUAAAAACCAUUAUUUUCUCAUCUGUAAAAUGGAGAGAACAACAGAGGAUUGAGCAUCA
B20: chr13:30280108:30280219:-|CDS|ENSG00000102781|unk|FALSE|bound_elsewhere (ssRNA)
RNA: GGGAGUUCUACAGUCCGACGAUCUAAGGUUCGGCAGGAAUUAUUGGAGGAAUAUGAACAAGUUAAAAGUAUUGUCAGCACUUUAGAAAGUUUUAAAAUUGACAAGCCUCCAGAUUUCCCUGUGUCCUGUCAAGAUGAACCAUUCAACAGAGGAUUGAGCAUCA
B21: chr1:16124655:16124788:-|3pUTR|ENSG00000142627|msi1|total|mutant (ssRNA)
RNA: GGGAGUUCUACAGUCCGACGAUCAGACUGUGAACUUGACUGGGUGAGACCCAAAGCGGUCCCUGUCCCUCCCGUGCCUUCUUCCGACCCUCGGGCCCCAUCCUCAUCCCUGACUGGCCAAACCCUUGCUUUCCUGGGCCUUUGCAACAGAGGAUUGAGCAUCA
B22: chr6:43287355:43287456:+|3pUTR|ENSG00000146216|unk|FALSE|unique (ssRNA)
RNA: GGGAGUUCUACAGUCCGACGAUCUAUGACUCCUGGUGCCCAGGCCCUGGGCCUGCUCCUUGCCACCAACCGAACCGUGAAUGUAGGGCCCCCAGCCUCACCUCUGCCCCAGGACCAACAACACCCUGGUUUGGAGCUGGGAGGCAACAGAGGAUUGAGCAUCA

For this test, the target named is MSI1 full-length (mouse, UniProt Q61474 1-362). The experiment in a line: nsRBNS (natural sequence RNA bind-n-seq); RBNS binding buffer (assumed for nsRBNS): 25 mM Tris pH 7.5, 150 mM KCl, 3 mM MgCl2, 0.01% Triton X-100, 500 ug/ml BSA, 20 U/ml SUPERase-In, 4 C; UNK is unkempt and MSI1 is Musashi-1; names of the RNAs are library labels; protein concentration not given here; high values mean tight binding.
UniProt Q61474, sequence (Q61474 whole entry): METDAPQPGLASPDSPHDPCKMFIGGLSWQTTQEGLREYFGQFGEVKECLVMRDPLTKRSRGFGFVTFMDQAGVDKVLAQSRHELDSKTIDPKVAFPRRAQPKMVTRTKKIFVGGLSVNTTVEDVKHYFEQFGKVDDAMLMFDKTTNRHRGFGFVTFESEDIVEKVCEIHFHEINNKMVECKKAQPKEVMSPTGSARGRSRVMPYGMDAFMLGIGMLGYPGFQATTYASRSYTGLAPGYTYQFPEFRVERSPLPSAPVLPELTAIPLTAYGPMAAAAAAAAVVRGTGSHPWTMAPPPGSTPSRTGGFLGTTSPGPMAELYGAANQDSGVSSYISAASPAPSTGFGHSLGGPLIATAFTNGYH
In turn, B1 had a binding signal of 0.254 enrichment R.
Consider B2, for which the binding signal was found to be 0.278 enrichment R.
The value for B3 was 0.623 enrichment R.
B4: the binding signal was 11.3 enrichment R.
B5 had a binding signal of 0.55 enrichment R.
Regarding B6, the binding signal was 0.493 enrichment R.
With B7, the binding signal was determined as 0.349 enrichment R.
Consider B8, for which the binding signal came out at 0.626 enrichment R.
The molecule B9 gave a binding signal of 0.253 enrichment R.
B10 yielded a binding signal of 0.59 enrichment R.
Turning to B11, the binding signal came out at 0.315 enrichment R.
The value for B12 was 0.442 enrichment R; that for B13 was 11.5 enrichment R.
For the molecule B14, the binding signal was found to be 0.387 enrichment R.
Take B15: the binding signal came out at 1.36 enrichment R.
The value for B16 was 0.297 enrichment R.
As for B17, the binding signal was 2.49 enrichment R.
For the molecule B18, the binding signal was 0.46 enrichment R.
B19 came in with a binding signal of 3.26 enrichment R.
The figure for B20 is 1.69 enrichment R; for B21 it is 0.681 enrichment R; for B22 it is 0.537 enrichment R.

The values are drawn from article PMC12136788.
